According to EPA's CvTdb concentration-time database:
This continues a long series; more values of the same kind are listed elsewhere.

Tests used:
Test in all cases: concentration in plasma after dosing
Rat [1] = conditions: dosed: Methyleugenol, 150 mg/kg, oral, Male, F344/N
Rat [2] = conditions: dosed: Methyleugenol, 150 mg/kg, oral, Male, F344/N; remark: listed apart in the source
Rat [3] = conditions: dosed: Methyleugenol, 150 mg/kg, oral, Male, F344/N; remark: listed apart in the source
Rat [4] = conditions: dosed: Methyleugenol, 150 mg/kg, oral, Female, F344/N
Rat [5] = conditions: dosed: Methyleugenol, 75 mg/kg, oral, Female, F344/N
Rat [6] = conditions: dosed: Methyleugenol, 150 mg/kg, oral, Female, F344/N; remark: listed apart in the source
Rat [7] = conditions: dosed: Methyleugenol, 75 mg/kg, oral, Female, F344
Rat [8] = conditions: dosed: Methyleugenol, 150 mg/kg, oral, Male, F344
Rat [9] = conditions: dosed: Methyleugenol, 75 mg/kg, oral, Female, F344/N; remark: listed apart in the source
Rat [10] = conditions: 0.25 h; dosed: Methyleugenol; 37 mg/kg; oral; Male; F344
Rat [11] = conditions: dosed: Methyleugenol, 150 mg/kg, oral, Male, F344/N; remark: listed apart in the source
Rat [12] = conditions: dosed: Methyleugenol, oral

C=CCc1ccc(OC)c(OC)c1 [Methyleugenol]
Conditions | concentration in plasma [ng/mL]
Rat [1], 2 h | 770
Rat [1], 24 h | 6.38
Rat [2], 0.25 h | 641
Rat [2], 24 h | 8.86
Rat [3], 2 h | 1200
Rat [3], 12 h | 47.5
Rat [4], 0.5 h | 1180
Rat [4], 3 h | 812
Rat [5], 2 h | 140
Rat [5], 5 min | 1790
Rat [6], 0.5 h | 1070
Rat [6], 4 h | 1430
Rat [7], 5 min | 4640
Rat [7], 6 h | 59
Rat [8], 0.5 h | 2470
Rat [8], 1.5 h | 1170
Rat [9], 2 min | 980
Rat [9], 6 h | 49
Rat [11], 1.5 h | 697
Rat [11], 5 h | 916

Conditions | concentration in plasma [ng/mL]
Rat [10] | 431

concentration in plasma [ng/mL], Rat [12]
Conditions | 0.25 h | 0.5 h | 1 h | 2 min | 5 min | 10 min | 20 min
37 mg/kg, Female, F344 | 417 | 305 | 101 | – | 1470 | – | –
37 mg/kg, Female, F344/N | – | 229 | 15.2 | – | – | – | –
37 mg/kg, Male, F344 | 543 | 292 | 262 | – | 546 | – | –
75 mg/kg, Female, F344 | 746 | 911 | 1100 | – | 2250 | – | –
75 mg/kg, Female, F344/N | – | 722 | 366 | 47.2 | 205 | 841 | 438
75 mg/kg, Male, F344 | 1060 | 1210 | 1680 | – | 1290 | – | –
75 mg/kg, Male, F344/N | – | 302 | 731 | 583 | 2020 | 1730 | 1390
150 mg/kg, Female, F344 | 2140 | 5070 | – | – | 3540 | – | –
150 mg/kg, Female, F344/N | 2170 | 3040 | – | – | 4530 | 4720 | –
150 mg/kg, Male, F344 | 1360 | 1320 | – | – | 5760 | – | –
150 mg/kg, Male, F344/N | 985 | 506 | – | – | 695 | 1640 | –
